# Data reported in the supplement of paper PMC8728848.
# The other results are listed elsewhere or left out.
# B1: MAL-II (Maackia amurensis), P93248 (protein)
# chain: ATSNSKPTQVLLATFLTFFFLLLNNVNSSDELSFTINNFVPNEADLLFQGEASVSSTGVLQLTRVENGQPQQYSVGRALYAAPVRIWDNTTGSVASFSTSFTFVVKAPNPTITSDGLAFFLAPPDSQIPSGRVSKYLGLFNNSNSDSSNQIVAVEFDTYFGHSYDPWDPNYRHIGIDVNGIESIKTVQWDWINGGVAFATITYLAPNKTLIASLVYPSNQTSFIVAASVDLKEILPEWVRVGFSAATGYPTQVETHDVLSWSFTSTLEANSDAATENNVHIARYTA
# Key:
# Assay in all cases: glycan array binding signal (z-score within array); higher = stronger binding
# Conditions in all cases: glycan notation: IUPAC condensed, linker removed
# [1] = target: Gal(b1-3)GlcNAc(b1-2)Man(a1-3)[Gal(b1-3)GlcNAc(b1-2)Man(a1-6)]Man(b1-4)GlcNAc(b1-4)GlcNAc
# How it was run: (§1)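 Negative Z-scores can be read as non-binding. The Z-score is calculated within each array and then averaged across arrays of one protein sequence at different concentrations or buffers and across linkers. Arrays, 3228 in all, were curated from the Consortium for Functional Glycomics database and kept only where the protein sequence was available.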
# [2] = target: Gal(b1-3)GlcNAc(b1-2)Man(a1-3)[Gal(b1-3)GlcNAc(b1-2)Man(a1-6)]Man(b1-4)GlcNAc(b1-4)[Fuc(a1-6)]GlcNAc
# How it was run: as §1
# [3] = target: Gal(b1-3)GlcNAc(b1-2)Man(a1-3)[GlcNAc(b1-4)][Gal(b1-3)GlcNAc(b1-2)Man(a1-6)]Man(b1-4)GlcNAc(b1-4)GlcNAc
# How it was run: as §1
# [4] = target: Gal(b1-3)GlcNAc(b1-2)[Gal(b1-3)GlcNAc(b1-6)]Man(a1-6)[Gal(b1-3)GlcNAc(b1-2)Man(a1-3)]Man(b1-4)GlcNAc(b1-4)GlcNAc
# How it was run: as §1
# [5] = target: Gal(b1-3)GlcNAc(b1-3)Gal(b1-3)GlcNAc
# How it was run: as §1
# [6] = target: Gal(b1-3)GlcNAc(b1-3)Gal(b1-4)Glc
# How it was run: as §1
# [7] = target: Gal(b1-3)GlcNAc(b1-3)Gal(b1-4)GlcNAc
# How it was run: as §1
# [8] = target: Gal(b1-3)GlcNAc(b1-3)Gal(b1-4)GlcNAc(b1-2)Man(a1-3)[Gal(b1-3)GlcNAc(b1-3)Gal(b1-4)GlcNAc(b1-2)Man(a1-6)]Man(b1-4)GlcNAc(b1-4)GlcNAc
# How it was run: as §1
# [9] = target: Gal(b1-3)GlcNAc(b1-3)Gal(b1-4)GlcNAc(b1-2)[Gal(b1-3)GlcNAc(b1-3)Gal(b1-4)GlcNAc(b1-6)]Man(a1-6)[Gal(b1-3)GlcNAc(b1-3)Gal(b1-4)GlcNAc(b1-2)Man(a1-3)]Man(b1-4)GlcNAc(b1-4)[Fuc(a1-6)]GlcNAc
# How it was run: as §1
# [10] = target: Gal(b1-3)GlcNAc(b1-3)Gal(b1-4)GlcNAc(b1-3)Gal(b1-4)GlcNAc(b1-2)[Gal(b1-3)GlcNAc(b1-3)Gal(b1-4)GlcNAc(b1-3)Gal(b1-4)GlcNAc(b1-6)]Man(a1-6)[Gal(b1-3)GlcNAc(b1-3)Gal(b1-4)GlcNAc(b1-3)Gal(b1-4)GlcNAc(b1-2)Man(a1-3)]Man(b1-4)GlcNAc(b1-4)[Fuc(a1-6)]GlcNAc
# How it was run: as §1
# [11] = target: Gal(b1-3)GlcNAc(b1-3)Gal(b1-4)GlcNAc(b1-6)[Gal(b1-3)GlcNAc(b1-3)]Gal(b1-4)Glc
# How it was run: as §1
# [12] = target: Gal(b1-3)GlcNAc(b1-3)Gal(b1-4)[Fuc(a1-3)]GlcNAc
# How it was run: as §1
# [13] = target: Gal(b1-3)GlcNAc(b1-3)Gal(b1-4)[Fuc(a1-3)]GlcNAc(b1-6)[Gal(b1-3)GlcNAc(b1-3)]Gal(b1-4)Glc
# How it was run: as §1
# [14] = target: Gal(b1-3)GlcNAc(b1-3)GalNAc
# How it was run: as §1
# [15] = target: Gal(b1-3)GlcNAc(b1-6)Gal(b1-4)GlcNAc
# How it was run: as §1
# [16] = target: Gal(b1-3)GlcNAc(b1-6)GalNAc
# How it was run: as §1
# [17] = target: Gal(b1-3)GlcNAc(b1-6)[Gal(b1-3)]GalNAc
# How it was run: as §1
# Gal(b1-3)GlcNAc6S = target: Gal(b1-3)GlcNAc6S
# How it was run: as §1
# [18] = target: Gal(b1-3)[Fuc(a1-4)]GlcNAc
# How it was run: as §1
# [19] = target: Gal(b1-3)[Fuc(a1-4)]GlcNAc(b1-2)Man
# How it was run: as §1
# [20] = target: Gal(b1-3)[Fuc(a1-4)]GlcNAc(b1-2)Man(a1-3)[Gal(b1-3)[Fuc(a1-4)]GlcNAc(b1-2)Man(a1-6)]Man(b1-4)GlcNAc(b1-4)GlcNAc
# How it was run: as §1
# [21] = target: Gal(b1-3)[Fuc(a1-4)]GlcNAc(b1-2)Man(a1-3)[Gal(b1-3)[Fuc(a1-4)]GlcNAc(b1-2)Man(a1-6)]Man(b1-4)GlcNAc(b1-4)[Fuc(a1-6)]GlcNAc
# How it was run: as §1
# [22] = target: Gal(b1-3)[Fuc(a1-4)]GlcNAc(b1-3)Gal(b1-3)[Fuc(a1-4)]GlcNAc
# How it was run: as §1
# [23] = target: Gal(b1-3)[Fuc(a1-4)]GlcNAc(b1-3)Gal(b1-4)GlcNAc
# How it was run: as §1
# [24] = target: Gal(b1-3)[Fuc(a1-4)]GlcNAc(b1-3)Gal(b1-4)[Fuc(a1-3)]GlcNAc
# How it was run: as §1
# [25] = target: Gal(b1-3)[Fuc(a1-4)]GlcNAc(b1-6)GalNAc
# How it was run: as §1
# [26] = target: Gal(b1-3)[GlcNAc(b1-6)]GalNAc
# How it was run: as §1
# [27] = target: Gal(b1-3)[Neu5Ac(a2-6)]GalNAc
# How it was run: as §1
# [28] = target: Gal(b1-3)[Neu5Ac(a2-6)]GlcNAc(b1-4)Gal(b1-4)Glc
# How it was run: as §1
# [29] = target: Gal(b1-3)[Neu5Ac(a2-6)]GlcNAc(b1-6)Gal(b1-4)Glc
# How it was run: as §1
# [30] = target: Gal(b1-3)[Neu5Ac(b2-6)]GalNAc
# How it was run: as §1
# Gal(b1-4)Gal = target: Gal(b1-4)Gal
# How it was run: as §1
# [31] = target: Gal(b1-4)GalNAc(a1-3)[Fuc(a1-2)]Gal(b1-4)GlcNAc
# How it was run: as §1
# [32] = target: Gal(b1-4)GalNAc(b1-3)[Fuc(a1-2)]Gal(b1-4)GlcNAc
# How it was run: as §1
# Gal(b1-4)Glc = target: Gal(b1-4)Glc
# How it was run: as §1
# Gal(b1-4)Glc6S = target: Gal(b1-4)Glc6S
# How it was run: as §1
# Gal(b1-4)GlcNAc = target: Gal(b1-4)GlcNAc
# How it was run: as §1
# [33] = target: Gal(b1-4)GlcNAc(a1-6)Gal(b1-4)GlcNAc
# How it was run: as §1
binder,measurement,setting,value
B1,glycan array binding signal (z-score),[1],-0.182
same,glycan array binding signal (z-score),[2],-0.093
same,glycan array binding signal (z-score),[3],-0.169
same,glycan array binding signal (z-score),[4],0.046
same,glycan array binding signal (z-score),[5],-0.172
same,glycan array binding signal (z-score),[6],-0.239
same,glycan array binding signal (z-score),[7],-0.203
same,glycan array binding signal (z-score),[8],-0.177
same,glycan array binding signal (z-score),[9],-0.334
same,glycan array binding signal (z-score),[10],0.068
same,glycan array binding signal (z-score),[11],-0.249
same,glycan array binding signal (z-score),[12],-0.234
same,glycan array binding signal (z-score),[13],-0.193
same,glycan array binding signal (z-score),[14],-0.226
same,glycan array binding signal (z-score),[15],-0.286
same,glycan array binding signal (z-score),[16],-0.274
same,glycan array binding signal (z-score),[17],-0.089
same,glycan array binding signal (z-score),Gal(b1-3)GlcNAc6S,-0.3
same,glycan array binding signal (z-score),[18],-0.215
same,glycan array binding signal (z-score),[19],-0.173
same,glycan array binding signal (z-score),[20],-0.217
same,glycan array binding signal (z-score),[21],-0.045
same,glycan array binding signal (z-score),[22],-0.22
same,glycan array binding signal (z-score),[23],-0.226
same,glycan array binding signal (z-score),[24],-0.209
same,glycan array binding signal (z-score),[25],0.689
same,glycan array binding signal (z-score),[26],-0.217
same,glycan array binding signal (z-score),[27],0.239
same,glycan array binding signal (z-score),[28],-0.202
same,glycan array binding signal (z-score),[29],-0.228
same,glycan array binding signal (z-score),[30],-0.33
same,glycan array binding signal (z-score),Gal(b1-4)Gal,-0.074
same,glycan array binding signal (z-score),[31],-0.198
same,glycan array binding signal (z-score),[32],-0.263
same,glycan array binding signal (z-score),Gal(b1-4)Glc,-0.219
same,glycan array binding signal (z-score),Gal(b1-4)Glc6S,-0.235
same,glycan array binding signal (z-score),Gal(b1-4)GlcNAc,-0.219
same,glycan array binding signal (z-score),[33],-0.225
